Measured values published in PMC5303829, “A CAF40-binding motif facilitates recruitment of the CCR4-NOT complex to mRNAs targeted by Drosophila Roquin” (Nature Communications, 2017).
No constants are given. Whether binding was seen depends on the method and setting. In cells and extracts the contact can be indirect. Some results given as binding are weak or reduced against the parent protein; the word gives no strength. Tags and fused reporters may be left off the sequences shown.

Amino acid sequences for entries named in this document (tags omitted).
UniProt Q9NZN8: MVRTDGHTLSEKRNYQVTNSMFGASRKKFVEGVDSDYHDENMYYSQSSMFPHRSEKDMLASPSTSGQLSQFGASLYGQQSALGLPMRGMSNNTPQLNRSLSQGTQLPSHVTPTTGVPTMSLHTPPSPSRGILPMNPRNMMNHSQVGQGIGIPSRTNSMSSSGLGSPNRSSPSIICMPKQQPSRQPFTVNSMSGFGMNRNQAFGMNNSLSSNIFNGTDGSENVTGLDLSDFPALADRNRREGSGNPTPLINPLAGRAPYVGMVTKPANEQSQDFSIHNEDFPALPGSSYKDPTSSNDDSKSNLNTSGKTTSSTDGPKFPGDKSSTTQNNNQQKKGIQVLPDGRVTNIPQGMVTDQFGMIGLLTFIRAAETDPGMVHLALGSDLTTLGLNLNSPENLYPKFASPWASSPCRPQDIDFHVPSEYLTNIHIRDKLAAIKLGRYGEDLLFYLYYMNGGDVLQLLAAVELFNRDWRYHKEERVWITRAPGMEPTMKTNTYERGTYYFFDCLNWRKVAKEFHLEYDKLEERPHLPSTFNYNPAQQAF
UniProt O75175: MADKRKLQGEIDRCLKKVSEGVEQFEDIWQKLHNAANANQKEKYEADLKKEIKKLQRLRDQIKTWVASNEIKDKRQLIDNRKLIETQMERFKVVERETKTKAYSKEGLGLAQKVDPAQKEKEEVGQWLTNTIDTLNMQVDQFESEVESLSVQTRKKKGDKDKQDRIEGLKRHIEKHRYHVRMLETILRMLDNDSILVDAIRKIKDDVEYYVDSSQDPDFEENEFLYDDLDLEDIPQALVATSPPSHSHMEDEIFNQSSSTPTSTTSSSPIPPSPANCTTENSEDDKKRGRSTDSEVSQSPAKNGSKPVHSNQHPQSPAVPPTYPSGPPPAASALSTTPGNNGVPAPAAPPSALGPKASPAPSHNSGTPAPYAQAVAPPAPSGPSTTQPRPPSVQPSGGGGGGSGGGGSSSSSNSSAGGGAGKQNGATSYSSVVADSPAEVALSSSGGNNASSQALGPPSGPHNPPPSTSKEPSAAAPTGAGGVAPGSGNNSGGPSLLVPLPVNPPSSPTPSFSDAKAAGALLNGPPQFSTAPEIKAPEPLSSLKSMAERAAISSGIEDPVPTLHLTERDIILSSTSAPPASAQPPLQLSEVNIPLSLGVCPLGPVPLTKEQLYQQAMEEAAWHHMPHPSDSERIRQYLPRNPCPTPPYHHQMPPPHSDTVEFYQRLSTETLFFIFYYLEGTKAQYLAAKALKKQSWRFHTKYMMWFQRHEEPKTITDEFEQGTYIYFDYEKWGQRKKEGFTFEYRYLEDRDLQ
UniProt Q7JVP2: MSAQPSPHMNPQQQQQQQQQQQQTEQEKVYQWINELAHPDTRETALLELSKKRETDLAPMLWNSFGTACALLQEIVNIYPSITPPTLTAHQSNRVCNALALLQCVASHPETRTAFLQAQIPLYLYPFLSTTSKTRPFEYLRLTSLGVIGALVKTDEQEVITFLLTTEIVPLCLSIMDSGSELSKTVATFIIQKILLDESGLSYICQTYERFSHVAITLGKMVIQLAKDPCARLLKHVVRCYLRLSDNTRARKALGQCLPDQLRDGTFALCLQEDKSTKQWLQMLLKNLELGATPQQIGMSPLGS
UniProt A5YKK6: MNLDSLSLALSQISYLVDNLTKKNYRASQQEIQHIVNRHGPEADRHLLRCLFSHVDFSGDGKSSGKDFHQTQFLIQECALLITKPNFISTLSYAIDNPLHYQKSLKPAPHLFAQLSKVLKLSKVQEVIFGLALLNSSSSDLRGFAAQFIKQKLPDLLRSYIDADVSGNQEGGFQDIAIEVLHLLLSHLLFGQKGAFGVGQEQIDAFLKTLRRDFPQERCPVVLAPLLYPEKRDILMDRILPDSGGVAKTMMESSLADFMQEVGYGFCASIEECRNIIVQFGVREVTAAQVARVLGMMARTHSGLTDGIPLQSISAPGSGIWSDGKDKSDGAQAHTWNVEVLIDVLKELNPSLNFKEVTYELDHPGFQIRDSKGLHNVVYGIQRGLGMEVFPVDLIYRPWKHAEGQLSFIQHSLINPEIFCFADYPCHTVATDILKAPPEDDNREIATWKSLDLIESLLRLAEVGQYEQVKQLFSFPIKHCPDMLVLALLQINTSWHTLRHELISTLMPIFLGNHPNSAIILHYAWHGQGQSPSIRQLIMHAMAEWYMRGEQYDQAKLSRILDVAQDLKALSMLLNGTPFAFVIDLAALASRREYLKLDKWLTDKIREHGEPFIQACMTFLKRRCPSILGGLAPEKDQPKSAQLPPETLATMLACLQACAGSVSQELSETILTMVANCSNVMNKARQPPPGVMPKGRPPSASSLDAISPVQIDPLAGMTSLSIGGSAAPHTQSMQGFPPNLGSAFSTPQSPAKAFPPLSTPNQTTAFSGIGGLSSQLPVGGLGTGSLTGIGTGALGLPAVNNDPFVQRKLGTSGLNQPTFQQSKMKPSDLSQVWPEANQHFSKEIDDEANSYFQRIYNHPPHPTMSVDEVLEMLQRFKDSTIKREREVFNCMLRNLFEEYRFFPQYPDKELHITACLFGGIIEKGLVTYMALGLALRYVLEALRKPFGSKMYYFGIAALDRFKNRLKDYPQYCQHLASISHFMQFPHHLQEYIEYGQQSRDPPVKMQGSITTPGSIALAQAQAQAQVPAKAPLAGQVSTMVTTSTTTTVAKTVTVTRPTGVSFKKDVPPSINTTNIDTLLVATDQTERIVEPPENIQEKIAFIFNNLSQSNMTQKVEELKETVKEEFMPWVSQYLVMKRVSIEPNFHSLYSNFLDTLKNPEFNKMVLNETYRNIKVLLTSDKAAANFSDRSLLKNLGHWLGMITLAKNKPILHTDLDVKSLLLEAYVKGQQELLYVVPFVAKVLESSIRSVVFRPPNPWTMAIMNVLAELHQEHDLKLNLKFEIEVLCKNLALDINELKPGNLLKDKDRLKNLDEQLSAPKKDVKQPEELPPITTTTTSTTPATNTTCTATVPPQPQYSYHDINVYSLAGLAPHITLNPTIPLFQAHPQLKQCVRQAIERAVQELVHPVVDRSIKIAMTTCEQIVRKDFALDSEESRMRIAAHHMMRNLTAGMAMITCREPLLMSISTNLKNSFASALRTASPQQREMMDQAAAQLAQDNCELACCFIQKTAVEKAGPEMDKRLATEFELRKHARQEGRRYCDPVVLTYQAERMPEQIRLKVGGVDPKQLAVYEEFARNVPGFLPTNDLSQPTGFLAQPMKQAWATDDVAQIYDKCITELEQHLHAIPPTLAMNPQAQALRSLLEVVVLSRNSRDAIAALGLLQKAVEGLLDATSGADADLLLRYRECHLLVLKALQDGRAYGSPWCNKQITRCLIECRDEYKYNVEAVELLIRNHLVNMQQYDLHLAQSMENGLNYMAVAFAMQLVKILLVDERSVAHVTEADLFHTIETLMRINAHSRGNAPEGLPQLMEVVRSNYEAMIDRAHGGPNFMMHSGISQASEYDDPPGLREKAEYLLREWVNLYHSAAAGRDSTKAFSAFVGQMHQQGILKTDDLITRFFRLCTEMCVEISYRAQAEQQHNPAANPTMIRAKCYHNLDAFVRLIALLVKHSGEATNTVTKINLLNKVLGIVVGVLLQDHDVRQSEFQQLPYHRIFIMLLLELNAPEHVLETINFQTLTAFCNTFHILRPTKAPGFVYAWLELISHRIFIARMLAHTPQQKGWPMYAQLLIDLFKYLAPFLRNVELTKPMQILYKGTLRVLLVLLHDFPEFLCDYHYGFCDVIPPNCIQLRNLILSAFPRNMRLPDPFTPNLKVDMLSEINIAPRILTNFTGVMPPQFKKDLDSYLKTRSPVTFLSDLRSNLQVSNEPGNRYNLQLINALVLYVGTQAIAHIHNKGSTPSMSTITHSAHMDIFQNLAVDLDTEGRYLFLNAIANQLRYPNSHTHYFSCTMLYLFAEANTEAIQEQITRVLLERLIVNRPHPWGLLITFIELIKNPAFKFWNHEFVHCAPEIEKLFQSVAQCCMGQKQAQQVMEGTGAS

What was measured:
[1] = molecular target: T1, V5-SBP-tagged Dm Roquin ΔCBM (Drosophila melanogaster) (UniProt Q9VV48); assay: pull-down; SBP pulldown from lysates of HEK293T cells expressing V5-SBP-tagged Roquin proteins (bait); endogenous NOT1, NOT2 and NOT3 in the bound fractions detected by western blotting
T1 sequence: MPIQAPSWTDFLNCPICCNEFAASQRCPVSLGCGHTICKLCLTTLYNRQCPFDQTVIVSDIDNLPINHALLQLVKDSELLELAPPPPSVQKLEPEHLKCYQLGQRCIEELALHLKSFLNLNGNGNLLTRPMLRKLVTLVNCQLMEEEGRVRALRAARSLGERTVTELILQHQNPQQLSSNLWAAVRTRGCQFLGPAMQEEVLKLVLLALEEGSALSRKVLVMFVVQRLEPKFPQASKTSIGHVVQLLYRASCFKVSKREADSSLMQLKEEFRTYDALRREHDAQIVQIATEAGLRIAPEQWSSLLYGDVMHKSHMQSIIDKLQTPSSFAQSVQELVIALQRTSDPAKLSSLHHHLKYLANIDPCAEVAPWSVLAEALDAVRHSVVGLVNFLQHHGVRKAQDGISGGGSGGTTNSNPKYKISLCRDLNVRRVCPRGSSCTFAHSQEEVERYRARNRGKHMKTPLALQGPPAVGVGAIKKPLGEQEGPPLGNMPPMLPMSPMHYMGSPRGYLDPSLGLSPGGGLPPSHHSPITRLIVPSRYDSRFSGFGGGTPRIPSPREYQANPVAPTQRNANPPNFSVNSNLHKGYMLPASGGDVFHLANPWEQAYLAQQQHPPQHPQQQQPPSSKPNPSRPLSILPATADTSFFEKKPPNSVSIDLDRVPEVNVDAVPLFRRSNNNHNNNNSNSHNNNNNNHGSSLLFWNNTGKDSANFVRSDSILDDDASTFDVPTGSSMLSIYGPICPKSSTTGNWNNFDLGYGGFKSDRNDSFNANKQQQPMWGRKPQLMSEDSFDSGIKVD

[2] = molecular target: T2, V5-SBP-tagged Hs Roquin2 (full-length) (human) (UniProt Q9HBD1); assay: as above
T2 sequence: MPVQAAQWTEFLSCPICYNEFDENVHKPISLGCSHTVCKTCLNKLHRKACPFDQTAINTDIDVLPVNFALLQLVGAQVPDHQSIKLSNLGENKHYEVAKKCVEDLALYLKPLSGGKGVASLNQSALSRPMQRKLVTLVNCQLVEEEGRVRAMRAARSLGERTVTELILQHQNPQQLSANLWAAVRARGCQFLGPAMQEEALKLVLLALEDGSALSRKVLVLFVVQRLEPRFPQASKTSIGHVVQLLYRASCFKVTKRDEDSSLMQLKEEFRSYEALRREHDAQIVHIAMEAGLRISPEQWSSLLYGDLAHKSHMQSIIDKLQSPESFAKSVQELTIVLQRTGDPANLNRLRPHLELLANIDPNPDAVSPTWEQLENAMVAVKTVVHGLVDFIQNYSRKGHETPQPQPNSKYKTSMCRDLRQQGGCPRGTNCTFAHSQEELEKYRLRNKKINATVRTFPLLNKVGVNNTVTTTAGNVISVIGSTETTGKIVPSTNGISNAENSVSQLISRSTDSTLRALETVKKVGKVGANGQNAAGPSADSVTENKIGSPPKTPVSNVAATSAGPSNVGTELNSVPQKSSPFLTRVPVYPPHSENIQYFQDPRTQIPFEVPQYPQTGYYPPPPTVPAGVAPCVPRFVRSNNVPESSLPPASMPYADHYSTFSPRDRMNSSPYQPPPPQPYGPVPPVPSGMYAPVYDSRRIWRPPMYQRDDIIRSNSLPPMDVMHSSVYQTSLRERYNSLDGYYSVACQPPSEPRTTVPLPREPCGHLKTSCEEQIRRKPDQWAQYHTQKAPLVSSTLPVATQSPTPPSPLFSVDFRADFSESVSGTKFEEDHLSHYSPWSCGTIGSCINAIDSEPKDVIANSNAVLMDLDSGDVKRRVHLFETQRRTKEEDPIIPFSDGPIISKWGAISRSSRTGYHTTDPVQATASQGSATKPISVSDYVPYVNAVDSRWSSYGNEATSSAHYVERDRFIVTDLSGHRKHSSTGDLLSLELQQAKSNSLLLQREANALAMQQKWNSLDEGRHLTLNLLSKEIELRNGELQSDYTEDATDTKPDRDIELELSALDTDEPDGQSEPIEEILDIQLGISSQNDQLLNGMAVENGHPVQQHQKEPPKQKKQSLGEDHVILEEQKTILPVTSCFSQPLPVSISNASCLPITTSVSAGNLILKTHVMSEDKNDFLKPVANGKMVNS

[3] = molecular target: T3, GFP-tagged Dm Roquin (full-length, wild-type) (Drosophila melanogaster) (UniProt Q9VV48); assay: co-IP; GFP-tagged Dm Roquin and HA-tagged deadenylase or decapping factors co-expressed in Dm S2 cells; lysates treated with RNase A; anti-GFP and anti-HA blots
T3 sequence: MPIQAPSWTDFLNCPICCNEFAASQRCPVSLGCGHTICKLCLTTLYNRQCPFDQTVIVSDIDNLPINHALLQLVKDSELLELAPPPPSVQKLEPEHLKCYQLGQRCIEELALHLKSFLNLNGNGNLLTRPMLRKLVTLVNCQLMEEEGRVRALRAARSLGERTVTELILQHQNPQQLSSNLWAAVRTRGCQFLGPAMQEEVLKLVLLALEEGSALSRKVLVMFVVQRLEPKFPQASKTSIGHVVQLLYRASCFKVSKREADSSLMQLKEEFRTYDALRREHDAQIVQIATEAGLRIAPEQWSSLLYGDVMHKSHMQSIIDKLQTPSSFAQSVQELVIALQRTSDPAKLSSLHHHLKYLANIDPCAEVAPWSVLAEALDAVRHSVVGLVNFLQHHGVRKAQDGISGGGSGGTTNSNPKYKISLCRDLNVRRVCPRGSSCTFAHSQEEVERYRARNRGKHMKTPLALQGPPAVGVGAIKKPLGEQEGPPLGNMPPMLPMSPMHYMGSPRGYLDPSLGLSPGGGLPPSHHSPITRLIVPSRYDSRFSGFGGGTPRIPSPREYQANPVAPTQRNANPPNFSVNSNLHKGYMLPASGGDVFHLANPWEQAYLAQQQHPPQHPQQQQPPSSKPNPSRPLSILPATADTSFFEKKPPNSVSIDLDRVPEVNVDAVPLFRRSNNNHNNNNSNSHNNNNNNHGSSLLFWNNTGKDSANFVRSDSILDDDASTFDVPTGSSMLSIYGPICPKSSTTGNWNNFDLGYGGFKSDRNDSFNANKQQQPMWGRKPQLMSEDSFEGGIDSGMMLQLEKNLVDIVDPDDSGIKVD

Row | binding [1] | binding [2] | binding [3] | Substance
1 | no binding | binds |  | endogenous NOT2 (HEK293T) (from UniProt Q9NZN8 1-540)
2 | no binding | binds |  | endogenous NOT3 (HEK293T) (from UniProt O75175 1-753)
3 |  |  | binds | HA-tagged Dm CAF40 (full-length, wild-type) (from UniProt Q7JVP2 1-304)
4 | no binding | binds |  | endogenous NOT1 (HEK293T) (from UniProt A5YKK6 1-2376)
